Data from the supplement of paper PMC10185492.
The list shows a part of the results. Values come from read counts of a selection and are noisy.

tested on: SARS-CoV-2 3CLpro (nsp5); assay: substrate phage enrichment score (protease-eluted vs HEPES control, +1 offset) (ratio); higher = better cleaved substrate; details: selection round: 4; protease elution time: 15 min
Description: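 Random heptapeptide substrate phage display (M13 pIII fusion, heptapeptide between an N-terminal biotinylated AviTag GLNDIFEAQKIEWHE and pIII; phages immobilised on streptavidin) eluted by cleavage with 50 nM protease in 20 mM HEPES at 37 °C. Selected phages were NGS sequenced, and the enrichment score is (reads in protease sample + 1)/(reads in HEPES blank-selection control + 1).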

Substance	substrate phage enrichment score
AKRGELR	2.06
LPVYGEH	2.67
VTSGTTG	5.5
GLSGPKA	8.75
WVYDTEA	> 28
TKPGESP	1.21
PGLGSMA	> 65
HQCVILQ	> 23
RRHPKCR	> 38
KAASAAA	> 28
TSSRENR	> 68
IATTDTY	0.0909
RYIQSTT	14
ACAAAHH	0.316
AAAHQQH	2
YSAAHHH	0.355
LKDRNLT	2.24
VTVDPHR	> 34
NYLSQEY	0.103
SCLCSSG	> 23
HCVPDLG	1.2
RPGHVQI	> 22
RNSSRVQ	1.88

Substance	substrate phage enrichment score
VRCWLPH	> 21
KENTVMG	2.67
LPQNVQT	> 36
RPVVKQQ	0.875
SDTHATE	13.3
NATAHHH	1.07
TTDLTTK	3
HYHHHGA	0.438
NRGGLKQ	37
TTCSLPH	> 26
AHRDECC	> 21
RCLQGVN	0.069
ESVSHLQ	> 32
VQTRLQS	> 163
VSDTSWP	3.4
PNMATSR	2.48
SSSGDCQ	1.14
NRNAGIE	> 66
QTGWCSD	1.82
LKWNTDG	0.87
LPCVILQ	> 54
VSCSSCN	> 63
PADLNGR	1.21

Substance	substrate phage enrichment score
SSTSQLS	4.29
VRPHNII	1.16
QKETLSL	0.333
CSTLLQS	> 382
RYQELNP	> 129
QGPQHLG	0.375
EMSKPIE	0.929
SLKCFRG	5.78
TSGINPV	0.15
QSRDTQG	2.43
ATLPAGG	> 22
ELTPDNY	> 34
PSSGDHR	3
NSHLPMK	0.55
ENNWQGD	> 31
EQARAGN	3.46
SIATWSC	> 30
RHHHHGA	0.846
HHHQGGS	13.5
RSDVKPM	2.71
HFQGGSA	1.73
TESVTLQ	34.2
YACGLDR	6.5

Substance	substrate phage enrichment score
PHQNPGE	> 23
RRWETMP	1.5
PFNGTTP	8.14
GRDEMNH	10.5
HTKCVSL	4.75
HGTSALQ	> 31
SVPTAHH	> 60
NWAAHHH	0.279
RHMQPRY	> 23
GVSQPHH	1.25
QSGSSRH	2.29
VAANGSR	> 58
VGKMHDC	0.545
NSAAAHH	0.765
TYVGTCR	> 23
ANSSFMR	> 55
VCLQASQ	> 23
GCSTLQS	> 21
QAAAHHH	0.869
AQSDEIP	9.57
QQVKPLS	1.9
SVEIGTV	1.75
SRAAHHH	0.395

Substance	substrate phage enrichment score
PYVSPGP	> 22
YAKNGRS	21.5
TQHRDFR	3.33
QRYFQGG	0.0909
RTNPSNR	> 37
PPKAQSG	1.81
VPQNAGT	2.7
PKYNVNV	> 29
MLPDSLR	> 31
PLVGTHT	> 70
STDGQWQ	3.12
AKYNQNA	3.57
STDWHPR	0.278
SRQVVLQ	> 33
RTEPAAH	> 39
SRGIETC	1.55
LPDTHAR	> 38
FISPSKQ	4.45
VNGNDLQ	2.2
FQSSRST	0.444
DFVLPRG	> 23
RSGTEKC	> 29
AFNTVGR	1.93

Substance	substrate phage enrichment score
KEHLDDW	> 37
GSESMAS	> 21
SARSTVI	4.75
TGCKQEK	> 65
TDRSHSR	> 43
DVRYSAQ	3.17
RVTLHGR	> 43
LTNCRIK	4
TKSDPPR	> 27
QFSTLQG	7
PSRSHGN	2.73
RHLVSKP	9.33
NPLSECM	1.86
EKPSRLQ	> 31
NQNPPLK	> 21
SPLHRNR	1.67
KRGNAAA	7.5
CCELQSL	> 21
KCSHPSR	> 41
GLGDSAW	5
VQGAIPP	> 25
AKIRECR	> 27
ESALTNR	> 30

Substance	substrate phage enrichment score
LITAPHT	3.4
EHGKLRS	4.5
ETYRTCH	0.118
NAHPTLQ	> 96
SSARRPG	6.82
LQAKPNR	0.565
ARPHNRL	> 28
SSQTWTV	1.85
ESGARLG	36.8
GRSSSDM	1.67
SERTLKC	0.968
YPSPVIP	0.0926
TGNSGSR	0.294
LQVLNKE	> 22
GTAAAHH	0.616
VNSAGQR	18.7
ESNSRSR	1.08
PCAKKGE	> 22
HESHSAG	0.13
FNSGPQR	> 41
SSLATPQ	4.8
NSELSRD	> 27
DYHGGNP	1.33

Substance	substrate phage enrichment score
KQPSHCK	3
RPGVDFR	13.3
SNGAQVH	2.33
HHPAGGP	0.0235
NTRPKLQ	> 76
PSQNRTT	> 26
ESGGRIM	> 31
SYNESWQ	0.0833
SATTRLQ	> 483
SAAANHH	0.795
QTGTLNH	> 48
KETQETE	8.12
NSAPSFS	1
RSVPQAE	> 55
ACEATFQ	> 52
EVRDECS	0.15
MPSRYSP	> 103
LPYADIR	> 22
CAAAHHQ	0.783
KCSGSKP	> 34
TCIPIIQ	> 72
SGSSWES	> 52
